Several values for one entry are separate records, joined by “and”; a condition that tells them apart may be missing. Identical values can stand only once.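 96-well plates; 48 h exposure; 5 concentrations. Endpoints by linear interpolation between flanking doses. Not reached: highest tested concentration assigned. Abbreviation: GI50, concentration required for 50% inhibition of growth. The concentration for full growth arrest is given as TGI.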 Peptide text beside a SMILES is read from it.
The compounds below were run on NCI-H322M lung (assay: inhibition of tumour cell growth, NCI panel, 48 h).

Compound | TGI | GI50
CCO/C=C\C12CCCC1NC(c1ccccc1)(c1ccccc1)O2 (stereo not drawn) | > 100 µM | 
O=C(CC12C3C4C1C1C2C3C41CC(=O)NO)NO (stereo not drawn) | > 100 µM | 
Cc1nnc(N/N=C/c2ccc([N+](=O)[O-])o2)[nH]c1=O | > 26.9 µM | 0.633 µM
O=C1C(c2ccccc2)=C(c2ccccc2)C1(Cl)Cl | 23.7 µM | 
N#Cc1sc2c(c1OC(=O)c1ccco1)c(=O)n(-c1ccccc1)c(=S)n2-c1ccccc1 | > 100 µM | 
C/C(=N\N=C(N)N)C(CN1CCOCC1)C(c1ccccc1)c1c(O)c2ccccc2oc1=O (stereo not drawn) | > 100 µM | 
OC(CCN1CCN(CCOC(c2ccccc2)c2ccccc2)CC1)c1ccccc1 (stereo not drawn) | 78.2 µM | 
O=C1C=CC2C3C(=O)N(c4ccccc4)C(=O)C3C1N2Cc1ccccc1 (stereo not drawn) | 23.7 µM | 10.2 µM
COC1(OC)CC(CO)(COc2cc(Cl)nc(N)n2)C1 | > 100 µM | 
N=C(N)SCc1nc(-c2ccc(Cl)cc2)no1 | > 100 µM | 
CCOC(=O)c1nc2ccccc2nc1Nc1ccc(C(=O)OC)s1 | > 100 µM | 
COc1nn(C)cc1Nc1nccc(-c2c[nH]c3c(NC(=O)[C@@H](C)N4CCN(C)CC4)cccc23)n1 | > 100 µM | > 100 µM
Clc1nc2nc(N3CCNCC3)nc(N3CCCC3)c2[nH]1 | 30 µM | 
COC(=O)C1=C(C)NC(=S)NC1c1ccc(N(CCCl)CCCl)cc1Cl (stereo not drawn) | > 100 µM | 
CC(=O)C1=C(C)N(Cc2ccccc2)C2(O)C=CC(=O)C3=C(O)c4ccccc4C(=O)C312 (stereo not drawn) | 26.4 µM | 12.4 µM
C=C(C)C1(Sc2ccc(OC)cc2)CC1 | > 100 µM | 
CCOP(=O)(OCC)/C(=C/n1c(=S)[nH]c2ccccc21)C(=O)OC | > 100 µM | 
CCCCCCCCCC1CC(=O)OC2=C1C(=O)CCC2 (stereo not drawn) | > 100 µM | 
CCN(CC)/N=C\c1c2ccccc2cc2ccccc12 | > 100 µM | 
Cc1ccc(C)n1-c1ccccc1C1C=Cn2c(=O)oc3c(OC(C)C)c(OC(C)C)c(O)c1c32 (stereo not drawn) | > 100 µM | 
C=CCC1(CN(C)C)CC/C(=C\c2ccc3c(c2)OCO3)C1=O (stereo not drawn) | > 100 µM | 
Cc1ccc2ccccc2c1CSc1nc(N)nc2c1ncn2CC(C)C | > 100 µM | 
COc1cc(OC)c(/C=C/C(=O)c2c(OC)cc(OC)cc2OC)c(OC)c1 | > 100 µM | 1.99 µM
O=C(CCCCCNC(=O)c1ccc(Cl)cc1)NO | 68.5 µM | 

Compound | TGI | GI50
CC1(C)CC(=O)c2c(N)n[nH]c2C1 | > 100 µM | 
O=C(O)c1cc(NCc2cc(O)ccc2O)ccc1O | > 100 µM | 
CC1C(c2ccccc2)N(C)C(c2ccccc2)C(C)C1(O)c1ccccc1 (stereo not drawn) | > 100 µM | 
O=C1CCC2(O)c3ccccc3C2Cc2ccccc21 (stereo not drawn) | > 100 µM | 
Oc1ccc(-c2nc3cc(C(F)(F)F)ccc3s2)cc1 | 28.7 µM | 
NS(=O)(=O)c1ccc(-n2nc3c(c2-c2cccs2)Cc2ccccc2-3)cc1 | 34.6 µM | 11.9 µM
N=C1C=CC(=C(c2ccc(N)cc2)c2ccc(N)cc2)C=C1 | 28.5 µM | 
O=C1Sc2ccccc2C(=O)N2CCSC12 (stereo not drawn) | > 100 µM | 
COc1c(C(N)=O)cc(-c2ccc(Cl)cc2)cc1-c1ccc(S(N)(=O)=O)cc1 | > 25 µM | 14.5 µM
CCn1c(CCCc2nc3c([nH]2)c(=O)n(C)c(=O)n3C)nc2c1c(=O)n(C)c(=O)n2C | > 100 µM | 
NC(=O)NNC/C(Cl)=C(\Cl)C(=O)O | > 100 µM | 
CCOC(=O)c1sc2nc(SC)nc3c2c1NCN3C | > 100 µM | 
Cc1c(C(=O)Nc2ccc(N3C[C@@H](C)O[C@@H](C)C3)nc2)cccc1-c1ccc(OC(F)(F)F)cc1 | 40.6 µM and 39.6 µM | 11.6 µM and 12.6 µM
CCCCCc1cc2cc3c(c(O)c2c(=O)[nH]1)C1(CCC3)C(=O)c2c(O)ccc(O)c2C1=O | > 100 µM | 
N#C/C(=C\c1ccc[nH]1)c1cc(-c2ccc(Cl)cc2)nn1-c1ccccc1 | > 100 µM | 3.51 µM
Cc1cc(OCc2ccc(C(F)(F)F)cc2)c2c(c1)C(=O)C=C(NCCN1CCCC1)C2=O | 11.8 µM | 3.66 µM
Oc1c(C(Nc2ccccn2)c2ccccc2)ccc2cccnc12 (stereo not drawn) | 42.8 µM | 
Cc1ccc(NC(=O)COc2ccc(Cl)cc2)cc1Cl | > 100 µM | 
Cc1ccc(/C=C2\CCCCC2=O)cc1 | > 100 µM | 
O=S(=O)(O)c1ccc(O)c(N=Nc2c(O)ccc3ccccc23)c1 | > 100 µM | 
COc1ccc(N=NC2=C(O)CCC2=O)cc1 | > 100 µM | 
Cc1nc(N)c(N2CCN(S(=O)(=O)N(Cc3ccccc3)Cc3ccccc3)CC2)c(=O)[nH]1 | 47.5 µM | 
CSc1nnnc2ccccc12 | > 100 µM | 
O=C(Nc1cccc([N+](=O)[O-])c1)c1cccc(C(=O)Nc2cccc([N+](=O)[O-])c2)c1 | > 100 µM | 99.1 µM

Compound | TGI | GI50
NC(=Nc1ccccc1)N/N=C/c1c[nH]c2ccccc12 | 15.8 µM | 
N=c1ncn(C/C=C/c2ccccc2)c2nc[nH]c12 | > 100 µM | 
CC(C)C[C@H](NC(=O)[C@H](CC(C)C)NC(=O)[C@@H](Cc1c[nH]c2ccccc12)NC(=O)[C@H](Cc1ccccc1)NC(=O)[C@@H](Cc1c[nH]c2ccccc12)NC(=O)[C@H](CCC(N)=O)NC(=O)[C@@H](CCC(N)=O)NC(=O)[C@@H]1CCCN1C(=O)[C@@H](CCCCN)NC(=O)[C@H]1CCCN1C(=O)[C@H](N)CCCN=C(N)N)C(N)=O (HELM PEPTIDE1{[dR].[dP].[dK].P.[dQ].Q.[dW].F.[dW].L.L.[am]}$$$$V2.0) | > 100 µM | 
CCC[CH2][Sn]1([CH2]CCC)[O]C(=O)c2cccc([N+](=O)[O-])c2C(=O)[O]1 | 2.87 µM | 1.49 µM
O=c1oc2ccccc2c(O)c1C(c1ccc(OCc2ccccc2)cc1)c1c(O)c2ccccc2oc1=O | > 100 µM | 
C=CCc1c(O)c(C(=O)/C=C/c2ccc(Cl)cc2)c(OC)c2ccoc12 | 17.7 µM | 4.88 µM
CC1=C(CCC(C)CO)O[C@H]2C[C@H]3[C@@H]4CC[C@H]5C[C@@H](O)CC[C@]5(C)[C@H]4CC(=O)[C@]3(C)[C@@H]12 (stereo partly drawn) | 68.2 µM | 
COc1cc2c3c(n(C)c(=O)c2cc1OC)-c1cc2c(cc1/C3=C\CCCCl)OCO2 | > 100 µM | 
CCOc1ccccc1N=NC1C(=O)N(C(=O)CC(=O)Nc2ccccc2C)N=C1C (stereo not drawn) | > 100 µM | 
CCSC12OC3(CCCCCN3C1=O)C1C(=O)N(c3ccccc3)C(=O)C12 (stereo not drawn) | > 100 µM | 
CC1Cc2c(Cl)ncnc2N(C)c2ccccc21 (stereo not drawn) | 35.7 µM | 2.57 µM
Cc1ccc(/C=c2\c(=O)[nH]c3nc4ccccc4c(=O)n23)cc1 | > 100 µM | 
Clc1ccc(C2SCc3nc4ccccc4n32)cc1 (stereo not drawn) | > 100 µM | 
CCCCCCCCN(CCCCCCCC)CC(O)c1cc(-c2ccccc2)nc2ccc(OC)cc12 (stereo not drawn) | > 100 µM | > 100 µM
COc1cccc(N2CC(O)=C(c3nc4ccccc4s3)C2=N)c1 | > 100 µM | 5.42 µM
CCCCCCc1ccc(CCCCCCCC(=O)O)o1 | > 100 µM | 
COC(=O)/C1=C/C=C\C[C@@]2(C)CC(c3ccoc3)OC(=O)[C@@H]2CC[C@H]1C (stereo partly drawn) | > 25 µM | 
O=C(Nc1nc2c(C(F)(F)F)cccc2s1)c1cc(Cl)ccc1O | 14.2 µM | 0.326 µM
Cc1cn(C2CC(O)C(Cn3nncc3Cn3nc(Br)c(=O)[nH]c3=O)O2)c(=O)[nH]c1=O (stereo not drawn) | > 100 µM | 
CCC[N+](C)(C)CCCNC(=O)c1c(O)c2ccccc2[nH]c1=O | > 100 µM | 
CC(=O)NC1C(OCc2ccccc2)OC(CO)C(O)C1OC(C)C(=O)NC(C(=O)NC(CCC(=O)NCCCNc1ccc([N+](=O)[O-])c2[nH]c3ccccc3c(=O)c12)C(N)=O)C(C)C (stereo not drawn) | > 100 µM | 
CC1CN(c2cc3c(cc2F)c(=O)c(C(=O)O)cn3-c2ccc(N3CCN(C)CC3)cn2)CC(C)N1 (stereo not drawn) | > 100 µM | 
CC1(C)CCCCCC(O)C(O)CCC(C)(C)C1=O (stereo not drawn) | > 100 µM | 
Nc1nc(-c2ccc3c(c2)/C(=C\c2cc(Br)c(O)c(Br)c2)C(=O)N3)cs1 | > 25 µM | > 25 µM

Compound | TGI | GI50
CCOC(=O)Cc1[nH]c(C(=O)c2ccccc2)cc1C(=O)c1ccccc1 | > 100 µM | 
OC1OCC(COc2cc(Cl)c(Cl)cc2Cl)OC1O (stereo not drawn) | > 100 µM | 
CC12CCC(C1)C(C)(C)C2OC(=O)c1ccccc1N (stereo not drawn) | 26.7 µM | 
Cc1cc(N(CCC#N)S(=O)(=O)c2ccccc2)ccc1C=Nc1ccc(C(=O)O)cc1 | > 54.5 µM | 
CCN(CC)CCOc1nc2ccccc2c2c1-c1ccc(OC)cc1C2=O | 2.65 µM | 0.461 µM
COc1ccc(NC(=O)CSC(=O)c2ccccc2)c(SCCSSCCSc2cc(OC)ccc2NC(=O)CSC(=O)c2ccccc2)c1 | > 100 µM | 
O=S(=O)(O)c1cc(S(=O)(=O)O)c2cc(N=Nc3ccc(N=Nc4ccc(/C=C/c5ccc(N=[N+]([O-])c6ccc(/C=C/c7ccc(N=Nc8ccc(N=Nc9ccc%10cc(S(=O)(=O)O)cc(S(=O)(=O)O)c%10c9)cc8)cc7S(=O)(=O)O)c(S(=O)(=O)O)c6)cc5S(=O)(=O)O)c(S(=O)(=O)O)c4)cc3)ccc2c1 | > 100 µM | 
O=C(Nc1ccc(Br)c2ccccc12)c1ccc2ccccc2c1O | 21.1 µM | 
COC1C(O)C(C)OC(O[C@H]2CC[C@@]3(C)C(CC[C@@H]4[C@@H]3CC[C@]3(C)[C@@H](C(C)OC5OC(CO)C(O)C(O)C5O)CC[C@]43O)C2)C1O (stereo partly drawn) | > 25 µM | 
O=c1c(O)c(-c2ccccc2)oc2c(CP(=O)(O)O)cccc12 | > 100 µM | 
c1ccc2c(c1)nnn2C1CCCCO1 (stereo not drawn) | > 100 µM | 
Cc1cc(-c2ccccc2)nc(Nc2cc3ccccc3[nH]2)n1 | > 100 µM | 
COc1cc2c(cc1OCC(=O)Nc1ccc(Cl)cc1C(=O)c1ccccc1Cl)N=CC1CCCN1C2=O (stereo not drawn) | 26 µM | 12.9 µM
COC(=O)Nc1nc2ccc(C(=O)c3cccc(I)c3)cc2[nH]1 | > 67.8 µM | 0.133 µM
COC(=O)C1=C(C)NC(C)=C(C(=O)OC)C1c1cccc(/[N+]([O-])=C/c2ccccc2)c1 | > 100 µM | 
O=c1c2cccnc2oc2c(Cl)cc(-c3nn[nH]n3)cc12 | > 100 µM | 
O=C(NC1CCC[C@H]1OC(=O)c1ccccc1)c1ccccc1 (stereo partly drawn) | > 100 µM | 
CC1=CC(C)=N/C(=N/S(=O)(=O)c2cc(C)c(Cl)cc2SCc2ccccc2)NN1 | > 100 µM | > 100 µM
COc1ccc(C(C2=C(O)CC(C)OC2=O)C2=C(O)CC(C)OC2=O)cc1 (stereo not drawn) | > 100 µM | 
Cc1cnc2c(c1)C(=O)N(c1ccc(Oc3ccccc3)cc1)S2(=O)=O | > 100 µM | 
CC1(c2ccc(F)cc2)C2C(=O)NC(=O)C1C(=O)NC2=O (stereo not drawn) | > 100 µM | 
COc1cc2c(cc1OC)C(Cl)C(c1ccc(Br)cc1)=C2Cl (stereo not drawn) | 31.9 µM | 
C=CC(=O)N1C/C(=C\c2ccc(OC)cc2)C(=O)/C(=C/c2ccc(OC)cc2)C1 | 12.7 µM | 
CC(C)N1CC2CC(CN(C(=O)c3ccc(Cl)cc3)C2)C1 | > 100 µM | 
